The list shows a part of the results. At the low end of the ranking the order means little.

In the assay the target is SIX1 homeodomain (reference allele) (UniProt Q15475). Description: universal protein binding microarray. To be noted: Universal all-10-mer PBM (8x60K, AMADID 030236), 300 nM GST-tagged protein, Alexa Fluor 488 anti-GST; buffer, salt, pH and temperature not stated; high values mean tight binding; most listed sequences are background and not binding sites; double strand, one strand shown.
On to ATCCTAAG, for which the binding signal was found to be 0.167 E-score.
Consider CCCATCCA, for which the binding signal was 0.1 E-score.
Take AAATGGAG: the binding signal is -0.0798 E-score.
To CAGGATCG belongs 0.297 E-score.
As for CACTTATG, the figure is 0.00777 E-score.
Take CCGAATTC: the binding signal is -0.111 E-score.
With AGAAAGTC, the binding signal is -0.357 E-score.
Regarding CCGATACG, the binding signal turned out to be 0.425 E-score.
For the sequence GTTCTGCA, the binding signal is -0.148 E-score.
As for CTTCCCGA, the binding signal stood at 0.0961 E-score.
For the sequence AAATCACC, the binding signal was found to be 0.0679 E-score.
Consider AAGTAGTC, for which the binding signal is -0.177 E-score.
As for AAGTCTAG, the binding signal was -0.243 E-score.
As for CCTTCTTC, the binding signal was -0.0405 E-score.
Take AGCTCCTC: the binding signal is -0.11 E-score.
As for CACCGAGG, the binding signal came out at 0.0607 E-score.
With CTTCTTCC, the binding signal is -0.204 E-score.
To GTTTTAGA belongs -0.173 E-score; to TATGATGA, 0.102 E-score; to ATCGGAAG, 0.0993 E-score.
As to ACGGTAAG, the binding signal is -0.0407 E-score.
In the case of TCCGAAAA, the binding signal was -0.0299 E-score.
Take ATAGTGGA: the binding signal turned out to be 0.133 E-score.
For ACAAACGG, the binding signal is -0.0492 E-score.
With CCGTGCAG, the binding signal stood at 0.0226 E-score.
As for AAGTCTAA, the binding signal is -0.124 E-score.
CCCCTTTA: the binding signal is -0.0225 E-score.
For the sequence CCACGCCC, the binding signal worked out at 0.0158 E-score.
For the sequence CAGATCAC, the binding signal was determined as 0.367 E-score.
On to CCTATTCC, for which the binding signal was -0.0875 E-score.
As for CCTGATAA, the binding signal turned out to be 0.0382 E-score.
As for ACAAAGCA, the figure is -0.0493 E-score; as for CACGCGTC, 0.0696 E-score; as for TAGTGTAA, 0.0727 E-score.
On to GCTAGTAC, for which the binding signal is -0.141 E-score.
As for TATGGTCA, the figure is 0.0241 E-score.
With AGGAAACT, the binding signal is -0.175 E-score.
Turning to GGCCCCAC, the binding signal is -0.265 E-score.
Regarding GATCATCC, the binding signal worked out at 0.41 E-score.
Turning to AGAGTCCT, the binding signal was -0.175 E-score.
CTCTAGAC: the binding signal came to 0.126 E-score.
As for GGCAGCCC, the binding signal was -0.024 E-score.
In the case of ATGGATGC, the binding signal was -0.0951 E-score.
To AAGTGGGT belongs -0.0364 E-score; to ATCTGGAA, 0.112 E-score.
Consider ACATGAAC, for which the binding signal was -0.133 E-score.
With TTGATAAA, the binding signal was -0.143 E-score.
In the case of TAGAGGGA, the binding signal worked out at 0.0699 E-score.
Regarding AGAGAATC, the binding signal was 0.0208 E-score.
Regarding GATACCAC, the binding signal was found to be 0.462 E-score.
Regarding GAGTTGTA, the binding signal was -0.0518 E-score.
Regarding AGTATTGA, the binding signal came out at 0.193 E-score.
Take AAACAGTA: the binding signal was -0.0174 E-score.
To CTTGTGTA belongs -0.075 E-score; to GCCATAGC, -0.117 E-score; to ACTCGAAG, -0.104 E-score.
Consider GAAAGGGC, for which the binding signal is -0.291 E-score.
Consider AGCCCAAG, for which the binding signal was -0.276 E-score.
For the sequence ACTTACAA, the binding signal was -0.0971 E-score.
For AGGGTGTC, the binding signal is 0.435 E-score.
As for CCTTAATA, the binding signal was 0.103 E-score.
Take AGGCAGGG: the binding signal turned out to be 0.0143 E-score.
Take AACGACTT: the binding signal is -0.41 E-score.
AATTAGAA: the binding signal is -0.214 E-score.
Regarding ACTGATCC, the binding signal amounted to 0.398 E-score.
As to CATACATA, the binding signal came out at 0.00813 E-score.
As for ATGATGCA, the binding signal is -0.00266 E-score.
CTCGGACA: the binding signal is -0.07 E-score.
For AATGCGAC, the binding signal was 0.0221 E-score.
To ATACTTAC belongs 0.218 E-score; to TCAAGTCA, -0.185 E-score.
For CGTAGTGA, the binding signal worked out at 0.182 E-score.
Take AACGGCCA: the binding signal was -0.0166 E-score.
With ACCGTGAC, the binding signal was -0.0326 E-score.
For the sequence GTTAAGCA, the binding signal is -0.0994 E-score.
To AACCTACG belongs -0.24 E-score.
As to GCTTGGAA, the binding signal was -0.301 E-score.
As to AAGTGCTC, the binding signal is -0.211 E-score.
Take GGACGCAA: the binding signal is -0.127 E-score.
Regarding CGTCTGAA, the binding signal is -0.0951 E-score.
As for AAATTCAG, the figure is -0.189 E-score; as for CTTGGTGA, 0.0931 E-score.
Regarding ATTGTCAC, the binding signal is -0.0222 E-score.
Regarding GCTACCGA, the binding signal is -0.162 E-score.
As to CAATCGCC, the binding signal was -0.221 E-score.
For the sequence AATTGGAA, the binding signal was -0.23 E-score.
As for AAGATCAA, the figure is 0.201 E-score.
As for CTCAAAAG, the binding signal was -0.0897 E-score.
With GACGCTGA, the binding signal is -0.211 E-score.
In the case of ATACCTCC, the binding signal was determined as 0.403 E-score.
For the sequence ACATGATC, the binding signal turned out to be 0.279 E-score.
Consider TGGCCTAA, for which the binding signal is -0.145 E-score.
On to GGCGGCGA, for which the binding signal is -0.142 E-score.
As to CGCGACTA, the binding signal was 0.0605 E-score.
For the sequence AATCGCGT, the binding signal is -0.00681 E-score.
As for CTCGCGGC, the figure is -0.106 E-score; as for AGGATGCC, 0.0353 E-score.
Turning to ATCTGCAT, the binding signal turned out to be 0.222 E-score.
As to AATCTGGT, the binding signal was 0.133 E-score.
Turning to GCTCGGTA, the binding signal is 0.0872 E-score.
Regarding ACGGCTTG, the binding signal is -0.14 E-score.
Regarding CTGCGATA, the binding signal came out at 0.342 E-score.
As for AGTTGCTG, the binding signal was -0.0685 E-score.
In the case of TAAGGTCA, the binding signal is -0.287 E-score.
In the case of ATCCTCAA, the binding signal turned out to be 0.216 E-score.
As for ACTAGACA, the figure is 0.0677 E-score; as for GTGCCGGA, 0.12 E-score; as for CGGAGACA, 0.0527 E-score.
To ACGTGCAG belongs -0.103 E-score; to AGACTATC, 0.239 E-score.
Consider AACCCTAG, for which the binding signal is -0.147 E-score.
For GATGGAAA, the binding signal is -0.193 E-score.
On to ATGGGTGA, for which the binding signal was determined as 0.139 E-score.
As for ATAGAGAG, the binding signal is -0.0711 E-score.
Turning to CTTGCTAA, the binding signal is -0.296 E-score.
In the case of CAGGCTCA, the binding signal is 0.155 E-score.
Turning to CCTCCGAC, the binding signal is -0.0789 E-score.
TGTGTGAA: the binding signal is -0.127 E-score.
As for GTTTAGAA, the figure is -0.0372 E-score.
Regarding AAATGTCC, the binding signal was -0.284 E-score.
Turning to TAGACTGA, the binding signal was -0.0843 E-score.
In the case of ACCCCGTG, the binding signal was determined as 0.118 E-score.
Take ACGAATGG: the binding signal is -0.217 E-score.
Regarding CTTGCAGC, the binding signal was -0.289 E-score.
Take CGCTTCGC: the binding signal is -0.357 E-score.
Take AGCATATA: the binding signal was 0.239 E-score.
CGAACTCA: the binding signal is -0.278 E-score.
As to CCGAAGCC, the binding signal is -0.181 E-score.
Regarding AGGAGACG, the binding signal was 0.134 E-score.
For GCTAGACC, the binding signal is -0.134 E-score.
With TAAGACCA, the binding signal is -0.229 E-score.
For CGAGACAG, the binding signal is 0.102 E-score.
Consider AAGGGAGC, for which the binding signal was -0.0418 E-score.
As to AATGGGGG, the binding signal was -0.159 E-score.
To GTCCACGA belongs -0.275 E-score; to CCAGATTA, 0.252 E-score; to CCTCCTTA, 0.0197 E-score.
To ATAATAAG belongs -0.00046 E-score; to AAACCCGA, 0.165 E-score; to GCAAACCC, 0.0308 E-score.
As for CTCTTATA, the figure is 0.111 E-score; as for CGGTTCGA, 0.0543 E-score.
As to CCTGTTTC, the binding signal was -0.308 E-score.
As to CGTTATGA, the binding signal amounted to 0.0286 E-score.
Consider CCACAACG, for which the binding signal was -0.184 E-score.
Turning to ACGAAGCG, the binding signal is -0.178 E-score.
On to GAACCTAA, for which the binding signal was -0.112 E-score.
Regarding GCGTAGCC, the binding signal was -0.0945 E-score.
To AGGCTACG belongs -0.125 E-score; to CATCCACA, 0.114 E-score; to CACATCAG, -0.0466 E-score.
Take CATCCCGG: the binding signal is 0.12 E-score.
Regarding CAGCCGAA, the binding signal was -0.275 E-score.
To ATAAACCG belongs 0.146 E-score; to GCCTGATA, 0.321 E-score; to AGGCAAAT, -0.0847 E-score.
CGGATGCC: the binding signal was determined as 0.214 E-score.
To AATGGTGA belongs -0.0708 E-score; to GGTGCAAA, -0.0159 E-score; to AGGATACC, 0.457 E-score.
Take ATCGTCAC: the binding signal was 0.279 E-score.
On to CCAACCCG, for which the binding signal is -0.0882 E-score.
In the case of CACTATCC, the binding signal amounted to 0.295 E-score.
As for AAATTCGT, the binding signal was found to be 0.0418 E-score.
As for GCCTTAGA, the figure is 0.019 E-score; as for TCTGACAA, -0.126 E-score; as for ACCTCGGC, -0.17 E-score.
As to TGGAAACA, the binding signal was -0.253 E-score.
As for CCAAAAAA, the binding signal was -0.0793 E-score.
For ATTTAGTA, the binding signal was determined as 0.0206 E-score.
On to CAGTTCAA, for which the binding signal was -0.0212 E-score.
For ACCTCGGG, the binding signal was -0.0956 E-score.

Source of the values: paper PMC10668032.
